# Results: the supplement of paper PMC10126150
# Sequences with one replicate were seen in a single cluster, so their values are uncertain.
# Tested on: ATP
# Experiment: switch fluorescence ratio, 500 uM ATP over buffer (Cy3 cluster intensity, sum of 5 cycles each) (fold (ratio)); higher = stronger signal-on switching upon ATP binding; sequences stand for … in TCGTCGGCAGCGTCAGATGTGTATAAGAGACAGTTTTTTTTTTTTTTTTTTTTTTTTT…TC
# Details: aptamer strand: ATP DNA aptamer (quencher-CACCTGGGGGAGTATTGCGGAGGAAGG + anchor), 100 nM annealed; ATP concentration: 500 uM; one replicate
# Outline: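 Cy3-labelled switching-strand clusters on a modified Illumina MiSeq flow-cell were annealed to 100 nM quencher-labelled ATP aptamer and imaged first in selection buffer, then after 15 min with 500 uM ATP at 22 °C. NaOH stripping and re-annealing separated each of five buffer/ATP cycles, and clusters outside 100-1000 RFU were excluded. The fluorescence ratio sums target-cycle Cy3 intensity over buffer-cycle Cy3 intensity per cluster and averages it per switch-domain sequence.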
# 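Note: ATP exposure 15 min at 22 °C before imaging.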
row,Sequence,switch fluorescence ratio
1,TTCGACGGGT,1.03
2,TCCACTTTCT,1.02
3,ATTTAAAGAG,1.03
4,CATCCCGTAA,3.56
5,ACTGAAGCAC,1.69
6,TCCTCCTCTA,6.46
7,GGCTCGCGCT,0.974
8,TTAGCAGGAC,4.16
9,CCTTGGGTTA,1.03
10,GCAAAAGATT,1
11,ATCAGGATTC,1.03
12,GTGGACGACT,0.767
13,ATTACGCTAG,1.06
14,TTAGGTAAGT,0.996
15,TGGGAATGAG,1.01
16,TATTACAATT,1.06
17,ACTGGGAAC,1.03
18,GGGTGATATA,1.04
19,TTGGCGGGTC,0.998
20,TTGCTATACT,2.45
21,AATTATCAGT,1.03
22,TTCGCATTAT,2.83
23,TAACTTGTTA,1.03

row,Sequence,switch fluorescence ratio
1,AAGTAAGGCA,1.04
2,TGTGATTAAG,1.04
3,ACGGGATTTA,1.04
4,TGAGCATGAC,1.58
5,CACGCTTGGT,1.04
6,AGTGGGTTAC,0.976
7,ACACCGGGGC,1.08
8,AAAGTTGAGG,0.967
9,CTTGAGTAAC,1.03
10,CGGTTTATCT,1.02
11,CCGGTGTAGC,1.01
12,CGGTCAAGTC,1
13,TGACTTAAGG,1.02
14,AAGACCAATA,1.07
15,TAGTTTAGCA,0.945
16,AGTGTTAATA,1.03
17,TATTCCAAGG,1.02
18,GGGGTGGAAC,1.07
19,TCATCGACGT,0.974
20,GTCGATGCAG,0.994
21,CGGATGACTT,1.01
22,TAGTTCTGAA,0.979
23,ACTGGAAGGG,1.02

row,Sequence,switch fluorescence ratio
1,CAATCGTGGT,1.03
2,CCGTGCCTTC,1.16
3,AATTTGATCG,1.01
4,AATATGTTAC,1.06
5,GTTGATTTG,0.954
6,CTCGTCAGGC,1.22
7,GCGACATTCG,1.02
8,AGAAGCTCGG,0.977
9,TAATTTTGAA,1.04
10,CAGAACTAAG,1.04
11,AATGACGTTT,1.05
12,TTCTACGGGA,1.85
13,CTCCGATCGG,1.05
14,GGCGAAGACT,0.987
15,AAGCTATTTA,1.02
16,AATACCTTAA,1.04
17,GCTTGTAATG,0.976
18,TAGCTTATCC,1.06
19,GAGTATTCGT,0.993
20,CATGGTGCAC,1.04
21,TATGGTATTC,1.01
22,TTAACATGGC,1.06
23,TTCCTTTTCA,1.05

row,Sequence,switch fluorescence ratio
1,TAGGTGAAAA,0.979
2,CCAACGGGCC,1.25
3,TTATGGCGTA,1.02
4,CTTGCAAGGG,1.04
5,CTCGTCCCTG,1
6,TTCCCCGCTT,1.51
7,ATGGTGTAA,1.02
8,GATGAGCGAC,0.98
9,ATTAGCAAGT,1.05
10,GGCTCACGAC,1.06
11,CGACTGGAGT,1.06
12,TAATTCTTA,0.997
13,CTCAGGGACG,0.897
14,TAAAATTAAA,0.998
15,TGCTACGTGA,2.15
16,GACCATCAAA,1.05
17,TACAATTTCA,1.04
18,TCGGGGCTTG,1
19,TTCGGATCAT,1.01
20,GAATAGCCTG,1.06
21,CTCAGCATAT,2.67
22,AAGCTACGGG,1.05
23,GCCGAAAAGG,0.985

row,Sequence,switch fluorescence ratio
1,CAGGGAACAT,1.01
2,CTAGTCAAGT,0.994
3,TAACTTAACA,1.08
4,TGCTTCCGG,1.19
5,TTCATCTATC,0.95
6,AAATAGGAAT,1.06
7,TTTTCACA,0.941
8,TAAATCGCTG,1.02
9,GACCGCGTGC,1.67
10,CCAGCGGGG,1.06
11,CCCGGAAGTC,1.38
12,TATAATCCTA,1.01
13,TTTGAGAGAA,1.06
14,TTGTGAGTCA,0.952
15,TACCCTCGC,1.31
16,GGATTGATTG,1.01
17,TGGTTCCTTT,0.967
18,GACAACCCCT,1.06
19,TAAGAAAAAC,1.03
20,TCTAGGGGT,1.02
21,AGGCAGTCGG,1.01
22,TGCTGTGATA,0.988
23,AGGCAGGACC,1.07

row,Sequence,switch fluorescence ratio
1,GTGGTCAGAG,0.988
2,TTGTTCCTGT,0.978
3,AATCGTAGGG,1.02
4,TAATCGCCGC,1.01
5,TTTGCAAGAT,1.18
6,GCTACCAGTT,1.08
7,TGTTGCCCAG,0.967
8,TATTTGATTC,1.05
9,CGGGAGATAG,0.982
10,ACAAGCTATT,0.95
11,CTTCCTCTTG,2.21
12,GGATTAAGAT,0.988
13,GTTTGGTGG,0.986
14,TCGCGGAGTG,0.947
15,TTGAATAATT,1
16,GGGTCCGTTG,1.01
17,AAGGTTCACA,0.995
18,TTTTACAGTC,0.961
19,CCGGTAAAGA,1
20,TAGATTTACT,1.03
21,AATCTCCAGG,1.76
22,GGATGTTGGA,0.953
23,TGTCCAATG,0.964

row,Sequence,switch fluorescence ratio
1,CACGCGCAAG,1.21
2,TGTAGGTAAG,1.01
3,CAGGGGTGG,0.99
4,GTAATGTTGC,1.04
5,GAACAGGGAC,1.02
6,CCCCCCAATT,1.9
7,GGATAGGTTC,1.16
8,GAGTATAGCA,1.04
9,ACGAGACGTT,1.09
10,GACATCAAGC,1.03
11,ATCTCATCTG,0.997
12,TGGGACGCGA,1.56
13,GCTGGGTCTA,1.06
14,AGAAGCGGGG,0.991
15,TTGGCGACAA,0.985
16,CCCGGTATGA,1.05
17,AGCGAGGGTA,1.03
18,GTAGGCACAA,0.934
19,ATATAGATGT,0.974
